The list shows a part of the results. Sequences were assembled here from the parent chain. Inactive controls read about 0.05.
B1: TEV protease; numbered along this chain (parent)
chain: MGESLFKGPRDYNPISSSICHLTNESDGHTTSLYGIGFGPFIITNKHLFRRNNGTLVVQSLHGVFKVKDTTTLQQHLVDGRDMIIIRMPKDFPPFPQKLKFREPQREERICLVTTNFQTKSMSSMVSDTSCTFPSGDGIFWKHWIQTKDGQCGSPLVSTRDGFIVGIHSASNFTNTNNYFTSVPKNFMELLTNQEAQQWVSGWRLNADSVLWGGHKVFMVKPEEPFQPVKEATQL

Variants of: B1
Assay: raw area under fraction-flipped curve 0-4 h after induction (AUC4h, not background-subtracted), DNA-recorder readout of cleavage of the substrate (dimensionless); higher = more cleavage of the substrate by the protease variant
Conditions: temperature: 34 °C; time window: 0-4 h after rhamnose induction
Procedure: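 In vivo DNA recorder in E. coli TOP10(DE3) ΔrhaA at 34 °C. Each TEVp single-site mutant (parent TEVp 0) is paired with a single-site variant of the 7-mer TEVs (canonical ENLYFQ|S). The substrate sits between flexible linkers in a Bxb1-sfGFP-TEVs-SsrA fusion, so cleavage stabilises Bxb1 and speeds flipping of a recombination array, read by NGS. The value is the raw area under the fraction-flipped curve over 0-4 h after rhamnose induction (AUC4h), with ≥20 reads per time point. It is not background-subtracted; inactive controls average about 0.047.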
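Also: Bxb1 expression induced with 0.2% (w/v) L-rhamnose at OD600 near 0.5, cultures sampled hourly, flipped fraction per protease–substrate barcode pair counted by paired-end Illumina sequencing.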

Variant | area with substrate CNLYFQS | area with substrate DNLYFQS | area with substrate GNLYFQS | area with substrate INLYFQS | area with substrate LNLYFQS | area with substrate MNLYFQS | area with substrate NNLYFQS | area with substrate TNLYFQS | area with substrate VNLYFQS | area with substrate WNLYFQS | area with substrate FNLYFQS | area with substrate HNLYFQS | area with substrate KNLYFQS | area with substrate QNLYFQS | area with substrate SNLYFQS | area with substrate YNLYFQS | area with substrate PNLYFQS | area with substrate RNLYFQS
G63H | 0.0714 | 0.0793 | 0.0653 | 0.067 | 0.0696 | 0.0576 | 0.0634 | 0.0626 | 0.0669 | 0.0574 | – | – | – | – | – | – | – | –
F65M | 0.0577 | 0.0804 | – | – | 0.0746 | 0.0636 | 0.0673 | 0.0669 | 0.075 | 0.0642 | 0.067 | 0.0596 | 0.067 | 0.0654 | 0.064 | 0.0646 | – | –
V67C | 0.0674 | 0.102 | 0.0566 | 0.0671 | 0.0643 | 0.0642 | – | 0.0759 | – | 0.0596 | 0.0411 | 0.0622 | 0.0699 | 0.0622 | 0.0548 | – | 0.0725 | –
K68C | 0.0902 | 0.0755 | – | – | 0.0699 | 0.0681 | – | – | – | 0.0619 | 0.0451 | 0.0573 | – | – | – | 0.063 | 0.0283 | –
K68V | 0.0627 | 0.0694 | 0.0645 | 0.0626 | 0.0799 | – | – | 0.0656 | 0.0506 | 0.0592 | – | 0.0606 | 0.0664 | – | – | 0.0691 | 0.0596 | –
D69N | 0.074 | 0.0829 | 0.0647 | 0.063 | – | – | – | 0.0451 | – | 0.0608 | 0.061 | 0.0574 | 0.066 | – | – | 0.0675 | 0.0697 | –
D69T | 0.0506 | 0.0836 | – | – | – | 0.0615 | 0.0681 | – | 0.0729 | 0.07 | – | 0.0594 | 0.064 | – | 0.0632 | 0.0577 | 0.0701 | –
T70G | 0.0668 | 0.0746 | – | 0.0653 | – | 0.0611 | 0.0595 | 0.0448 | – | 0.0545 | 0.0527 | 0.0767 | 0.0677 | – | – | 0.0704 | 0.0652 | –
T70H | 0.0439 | 0.0668 | 0.0575 | – | – | – | 0.0625 | – | – | – | – | 0.0611 | – | – | 0.0587 | 0.0589 | 0.0588 | –
T70Q | 0.0619 | 0.0756 | – | – | 0.0696 | – | 0.0767 | 0.0565 | 0.0549 | 0.0578 | 0.0553 | 0.0407 | – | 0.0548 | 0.0574 | 0.0591 | – | –
T71P | 0.0685 | 0.0586 | – | 0.0669 | – | – | – | 0.0564 | – | – | 0.0641 | – | – | 0.0691 | 0.0568 | 0.0502 | 0.0696 | –
L73S | 0.05 | 0.0624 | – | – | – | 0.0547 | – | 0.0588 | 0.0657 | 0.057 | 0.0583 | – | 0.0725 | – | – | 0.0493 | 0.0522 | 0.0477
L73T | 0.0594 | 0.0387 | 0.0454 | 0.0495 | 0.0626 | 0.0511 | 0.0586 | 0.0567 | 0.055 | 0.0565 | 0.0452 | 0.0496 | – | – | 0.0527 | 0.0363 | 0.0579 | –
L73W | 0.0494 | 0.0494 | 0.0582 | – | 0.0492 | 0.0679 | 0.0673 | – | 0.0873 | 0.0497 | 0.0475 | 0.0548 | 0.0697 | – | – | – | – | –
Q74C | 0.0591 | 0.078 | – | – | 0.0629 | – | 0.0671 | 0.0555 | – | 0.0556 | 0.0541 | 0.0591 | 0.0794 | – | – | 0.0682 | – | –
Q74R | 0.0734 | 0.0591 | 0.0657 | – | 0.0582 | 0.0668 | – | 0.0555 | 0.0743 | 0.0647 | – | 0.0628 | – | – | – | – | 0.0694 | 0.0643

Variant | area with substrate CNLYFQS | area with substrate DNLYFQS | area with substrate GNLYFQS | area with substrate INLYFQS | area with substrate LNLYFQS | area with substrate MNLYFQS | area with substrate NNLYFQS | area with substrate TNLYFQS | area with substrate VNLYFQS | area with substrate WNLYFQS | area with substrate FNLYFQS | area with substrate HNLYFQS | area with substrate KNLYFQS | area with substrate QNLYFQS | area with substrate SNLYFQS | area with substrate YNLYFQS | area with substrate PNLYFQS | area with substrate RNLYFQS
L77E | 0.054 | 0.0619 | 0.0772 | – | 0.0588 | 0.0468 | – | 0.0541 | 0.0645 | 0.0501 | 0.0508 | 0.0839 | 0.025 | – | 0.0574 | 0.061 | – | –
L77G | 0.0836 | 0.0602 | 0.0709 | 0.0519 | 0.0555 | – | 0.0574 | 0.0702 | 0.056 | 0.0655 | 0.0708 | 0.0644 | 0.0549 | – | 0.0674 | – | – | –
L77W | 0.0642 | 0.0639 | 0.0596 | 0.0564 | 0.0535 | – | – | 0.0636 | – | 0.0529 | – | – | 0.0692 | – | 0.0587 | – | – | –
D79A | 0.0772 | 0.0727 | – | 0.0702 | 0.0754 | – | – | 0.082 | 0.0636 | 0.082 | – | – | – | – | 0.0749 | 0.0573 | 0.0756 | –
D79H | 0.0669 | 0.0715 | – | 0.0604 | – | – | 0.0554 | 0.0918 | – | 0.0514 | – | 0.062 | 0.0814 | – | 0.0596 | 0.075 | – | –
R81F | 0.0609 | 0.0619 | 0.0641 | 0.0541 | 0.0622 | 0.0545 | – | – | 0.0593 | 0.0578 | 0.0714 | 0.0591 | – | 0.0408 | – | 0.0553 | 0.0567 | –
R81K | 0.063 | 0.0687 | – | – | 0.0671 | – | – | 0.0675 | – | – | 0.0584 | 0.0536 | – | – | 0.0664 | 0.0632 | 0.0611 | –
R81M | 0.0716 | 0.087 | 0.0635 | – | 0.0661 | 0.066 | 0.063 | 0.0583 | – | 0.0544 | – | 0.0561 | 0.0601 | – | – | 0.0601 | 0.0787 | –
D82G | 0.0269 | 0.0623 | – | – | 0.0473 | – | – | – | – | – | – | – | – | – | – | 0.0604 | – | –
D82R | 0.052 | 0.0542 | – | 0.0376 | – | – | – | 0.0617 | – | 0.0506 | – | – | – | – | – | 0.0494 | 0.0781 | –
M83C | 0.0525 | 0.0581 | – | – | – | 0.0647 | – | 0.0585 | 0.0686 | – | 0.0552 | 0.0654 | 0.0672 | – | 0.0919 | 0.0608 | – | –
M83G | 0.0439 | 0.0471 | – | – | 0.0439 | 0.0499 | 0.0529 | 0.0234 | 0.0366 | 0.0525 | 0.0465 | 0.0479 | 0.045 | – | 0.0481 | 0.0407 | 0.0571 | 0.0389
M83K | 0.0493 | 0.0454 | – | – | 0.0704 | – | 0.0629 | 0.0356 | – | 0.0516 | – | – | 0.056 | 0.0475 | – | 0.0271 | 0.0646 | 0.0651
I84F | 0.0441 | 0.0666 | – | 0.0578 | – | 0.0602 | – | 0.0654 | – | – | – | 0.0519 | 0.0429 | 0.0556 | 0.0589 | 0.029 | – | –
I86D | 0.0815 | 0.0592 | – | 0.0282 | 0.0323 | 0.0311 | 0.047 | – | 0.0415 | 0.0448 | – | – | – | – | – | – | – | –
I86W | 0.0543 | 0.0685 | 0.0599 | 0.0686 | 0.0528 | 0.0556 | 0.0538 | 0.0609 | – | 0.0493 | 0.0602 | 0.051 | 0.0672 | 0.0651 | 0.0619 | 0.047 | 0.0703 | 0.0529

Reference: the supplement of paper PMC12217912
